PubChem BioAssay AID1963576 (National Center for Advancing Translational Sciences (NCATS), 2024)
The campaign covered roughly 46,000 compounds. About 60 (0.1%) were called active. Another 3% or so got no clear call; they are omitted. Calls come from the whole dose curve; as a rule, active = well fitted inhibition curve with a large enough effect; inconclusive = small, poorly fitted or top-dose-only effect; inactive = no such curve, though single readings can be large or run the other way. The list shows a part of the results.

Assay: Primary qHTS assay for Inhibitors of ovarian cancer metastasis using an organotypic tumor microenvironment (TME) model.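 For activity change, negative = inhibition: plate controls were DMSO wells for no effect and tomatine positive control wells for full effect.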 Note: nearly all actives have a fitted effect of over 65% in size.
Conditions: SKOV3ip1-GFP adhesion/invasion on 3D omental model, fluorescence; series mostly up to 45.8 µM; activity change, negative = inhibition: at the top concentration
Summary of the method: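 qHTS, 4-pt dose (0.36-46 umol/L); SKOV3ip1-GFP, 1,200 cells/well, no FBS; primary omental fibroblast/mesothelial co-culture 48 h pre-grown; 2 h RT + 16 h 37 C; PBS wash, 4% PFA; GFP count 488/509 nm.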

Activity change, negative = inhibition, inactive:
O=C(CSc1nc2c([nH]c3ccccc32)c(=O)n1-c1ccc(Cl)cc1)c1ccccc1 -2.03%
Cc1ccc2nc(COc3ccccc3NC(=O)c3ccc(F)cc3)cc(=O)n2c1 6.31%
COc1ccc(NCc2cccn2-c2nnc(N3CCCCC3)s2)cc1OC -2.63%
Cc1cc(C)c(NC(=O)C2CCN(c3nn4c(=O)cc(C)nc4s3)CC2)c(C)c1 13.9%
CN1CCc2c(sc3c2C(=O)NC(c2ccc(C(C)(C)C)cc2)N3)C1 (stereo not given) -2.43%
O=C(Nc1cnc(N2CCN(c3ccccc3)CC2)c(C(=O)O)c1)c1cccs1 8.32%
Cc1cccc(-c2noc(-c3ccc(N4CCOCC4)c([N+](=O)[O-])c3)n2)c1 6%
COc1ccc(Cn2c(SCC(=O)N(C)Cc3ccccc3)nc3ccccc32)cc1 -3.3%
CC(C)(C)C1CCc2oc3ccc(NS(=O)(=O)c4ccc(C(=O)O)cc4)cc3c2C1 (stereo not given) -0.134%
CC1=C(C(=O)N2CCN(c3cccc(Cl)c3)CC2)C2(CCCCC2)OC1=O 6.71%
CCOC(=O)C1CCN(c2nc3c(S(=O)(=O)c4ccc(C)c(C)c4)nnn3c3ccc(Cl)cc23)CC1 1.27%
COc1ccc(C2N=C(N)Nc3nc4ccccc4n32)cc1 (stereo not given) -8.1%
CC1CCCCN1C(=O)c1cc(-c2ccc(Br)cc2)on1 (stereo not given) -5.89%
Cc1ccc(OCc2nc(-c3ccc(C(=O)NCc4ccc(OC(C)C)cc4)cc3)oc2C)cc1 -10.9%
Cc1cccn2c(=O)c(C(=O)NC(C)c3ccccc3)cnc12 (stereo not given) -0.884%
CCN(CC)S(=O)(=O)c1ccc2nc(NC(=O)c3cncc(Br)c3)sc2c1 -26.5%
CCN(C(=O)c1cc2c(=O)oc3ccc(C)cc3c2s1)c1ccccc1C 8.04%
Cc1cc(C)c(NC(=O)C(C)n2nnc3sc4c(c3c2=O)CCCC4)c(C)c1 (stereo not given) 2.39%
COc1ccc(Nc2oc(-c3ccc(COc4ccccc4C)o3)nc2C#N)cc1 3.35%
Cc1ccc(C(=O)c2cn(Cc3ccc(Cl)cc3)c3nc(C)ccc3c2=O)cc1 -19%
Cc1cc(C)cc(N2C(=O)N(Cc3cccc(F)c3)c3ccccc3S2(=O)=O)c1 -12.3%
Cc1nc2scc(C)n2c(=O)c1S(=O)(=O)NCCc1ccccc1 3.23%
CCOc1ccc(N(C)S(=O)(=O)c2ccc3[nH]cc(C(=O)NCc4ccccc4)c(=O)c3c2)cc1 9.71%
CN(C)c1ccc(CNC(=O)CN2CCSc3ccc(S(=O)(=O)N(C)C)cc32)cc1 -0.291%
Cc1ccc(CNC(=O)c2cc(-c3ccc(Cl)cc3)on2)cc1 -2.56%
CCN1CCN(c2ncc3c(n2)CC(c2ccccc2O)CC3=O)CC1 (stereo not given) -3.04%
COc1ccc(OC)c2sc(N(Cc3cccnc3)C(=O)c3ccco3)nc12 -8.35%
Cc1cc(NC(=O)CN2C(=O)c3cccnc3Sc3ccccc32)ccc1Br 7.65%
CCc1ccccc1NC(=O)Nc1nnc(N(CC)c2ccccc2)s1 0.993%
CCOc1ccc(NC(=O)Cn2c(=O)n(CC(=O)NCc3ccccc3Cl)c(=O)c3sccc32)cc1 0.119%
C[C@H](CCC(=O)O)[C@H]1CC[C@H]2[C@H]3[C@@H](CC[C@]12C)[C@@]1(C)CC[C@@H](O)C[C@H]1C[C@@H]3O 0.902%
O=C(Nc1ccc(Br)cc1)C1CCCN1S(=O)(=O)c1ccc(F)cc1 (stereo not given) -2.39%
CC(C)(C)c1ccc(C(=O)Nc2sc3c(c2C#N)CCC(C(C)(C)C)C3)cc1 (stereo not given) 4.24%
COc1ccc(CNC(=O)c2oc3c(c2C)-c2nn(Cc4ccc(Cl)cc4)cc2CC3)cc1 -9.6%
CCCCCn1c(=O)[nH]c2cc(C(=O)N3CCN(c4cccc(C(F)(F)F)c4)CC3)ccc2c1=O -16%
CC(C)c1nn2c(=O)cc(COC(=O)c3ccccc3NC(=O)c3cccc(Cl)c3)nc2s1 20%
COc1ccc(CCNC(=O)CCn2c(=O)c3ccccc3n(Cc3ccccc3)c2=O)cc1OC 5.97%
COc1cc(OC)c(NS(=O)(=O)c2c(C(=O)N3CCC(C)CC3)c(C)n(C)c2C)cc1Cl -9.18%
Cc1nnc(NC(=O)CSCc2cc(=O)c3ccccc3[nH]2)s1 0.976%
CCS(=O)(=O)N1CC(=O)N(c2ccc(Cl)cc2)C(C)(C(=O)NC2CCCCCC2)C1 (stereo not given) -1.93%
COc1ccc(N2CCN(Cc3nnc(-c4cccc(Br)c4)o3)CC2)cc1 6.25%
Cc1cc(C)cc(Oc2nc3c(C)cccn3c(=O)c2/C=C(\C#N)c2nc3ccccc3s2)c1 -4.85%
COc1ccc(CCNC(=O)C(C)n2c(=O)cc(C(F)(F)F)c3c(C)nn(C)c32)cc1OC (stereo not given) 9.73%
CCc1ccc(C(=O)c2cn(Cc3ccc(F)cc3)c3cc(OC)c(OC)cc3c2=O)cc1 3.9%
COC(=O)c1ccccc1NC(=O)c1cnc2c(-c3cccc(C)c3)c(C)nn2c1C 8.04%
Cc1nc2ccn(Cc3cccnc3)c(=O)c2cc1C(=O)N1CCN(c2ccc(F)cc2)CC1 -3.9%
CC(C)Cn1c(-c2ccc(S(=O)(=O)N3CCOCC3)cc2)csc1=Nc1cc(Cl)ccc1Cl 4.08%
COc1cccc(NC(=O)/C(C#N)=C/c2c(C)n(Cc3ccc(Cl)cc3)c3ccccc23)c1 -7.28%
CC(=O)c1cc(-c2ccc(F)cc2)n(CC(=O)Nc2cc(C)cc(C)c2)c1C -2.79%
Cc1ccc(C(C)C)c(OCCSc2nc3ccccc3n2CC(O)CO)c1 (stereo not given) -22.9%

outcome, inactive:
Cc1ccc(NC(=O)c2cc(S(=O)(=O)NCCc3ccc(Cl)cc3)ccc2F)cc1
CC1CCN(S(=O)(=O)c2ccc3c(ccc(=O)n3CC(=O)Nc3cccc(F)c3)c2)CC1
Cc1ccc(NC(=O)Cn2c(=O)nc(-c3ccccc3)c3ccccc32)cc1F
Cc1ccc(C)c(CN2C(=O)c3ccccc3S(=O)(=O)c3ccc(C(=O)NCCC4=CCCCC4)cc32)c1
COc1ccc(N2CCN(C(=O)CSc3n[nH]c(-c4ccccc4Cl)n3)CC2)cc1
Cc1ccc2oc(=O)c(S(=O)(=O)c3ccc(C(C)(C)C)cc3)cc2c1
Cc1ccc(CNC(=O)CNS(=O)(=O)c2cccs2)cc1
Cc1ccc(NC(=O)C2CCN(c3nn4cc(-c5ccc(C)cc5)nc4s3)CC2)cc1
Cc1cc(Nc2ccc(C(=O)O)c(O)c2)n2ncnc2n1
COc1ccccc1Cc1nc2ccccc2nc1SCC(=O)N1CCN(c2ccccc2)CC1
